From PubChem BioAssay AID686978 (National Center for Advancing Translational Sciences (NCATS), 2013)
Hit rate of the full screen: of about 420,000 compounds, about 64,000 (15%) were called active. The inconclusive results got no clear call from the source; some entries with a clear call stand among them for comparison. Calls come from the whole dose curve; as a rule, active = well fitted inhibition curve with a large enough effect; inconclusive = small, poorly fitted or top-dose-only effect; inactive = flat fitted curve, though single readings scatter. Potencies of inconclusive entries are left out as doubtful fits.

Assay: qHTS for Inhibitors of human tyrosyl-DNA phosphodiesterase 1 (TDP1): qHTS in cells in absence of CPT; note: nearly all actives have a fitted effect of over 55% in size
Conditions: DT40 Tdp1-/- hTDP1 cells, no CPT, ATP luminescence, 48 h; activity change, negative = growth inhibition: at 46.2 µM (top of the series)
Procedure, shortened: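 Cells were dispensed at 400 per well, compounds added by pin tool, plates incubated ≥48 hr at 37 °C, then CellTiter-Glo added for 30 min at room temperature before luminescence reading. Line: DT40 Tdp1-/- complemented with hTDP1; camptothecin omitted.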
% is set by controls: 0 for no effect and ±100 for the full control effect; potency is the fitted concentration of half-maximal effect; tags give direction and shape of the fitted curve.

| Compound | Potency | activity change, negative = growth inhibition |
| --- | --- | --- |
| Cc1c(C(=O)NCc2cccnc2)oc2ccc(S(=O)(=O)N3CCCC(C)C3)cc12 (stereo not given) | inconclusive [inhibitor, single point] |  |
| CCOc1cc(C(=O)NC(=S)Nc2ccc(Cl)c(C(=O)O)c2)cc(OCC)c1OCC |  | inactive: -4.72% |
| COc1cc(NC(=O)CSc2nc3ccccc3cc2Cc2ccccc2)cc(OC)c1 | inconclusive [inhibitor, single point] |  |
| O=C(NCc1ccco1)c1ccc(NC(=O)C2COc3ccccc3O2)cc1 (stereo not given) | inconclusive [inhibitor, single point] |  |
| COc1cc(NC(=O)C2CCN(S(=O)(=O)c3c(C)noc3/C=C/c3ccccc3F)CC2)cc(OC)c1OC | active: 23.1 µM |  |
| COCCNC(=S)NC(=O)CC12CC3CC(CC(C3)C1)C2 | inconclusive [inhibitor, partial curve] |  |
| COc1cc(CN2C(=O)C(C)ON=C2c2cccs2)cc(OC)c1 (stereo not given) | inconclusive [inhibitor, single point] |  |
| CCOc1ccccc1CNC(=O)C1Cc2cc(S(=O)(=O)N3CCCCC3)ccc2N1C(C)=O (stereo not given) | inconclusive [inhibitor, single point] |  |
| CC(C)C[C@H]1CNC(=S)N1C[C@H]1CCCN1C[C@H](Cc1ccc(O)cc1)N1C[C@H](CC(C)C)N(CCc2ccccc2)C1=S | active: 20.6 µM |  |
| CCc1ccccc1NC(=O)C1COc2ccccc2O1 (stereo not given) |  | inactive: -1.99% |
| COc1cccc(/C=C/c2nc(C#N)c(N3CCN(C)CC3)o2)c1 | active: 23.1 µM |  |
| Cc1ccc(S(=O)(=O)CCC(=O)OCC(=O)N2CCN(c3ccccc3)CC2)cc1 |  | inactive: -22.2% |
| Cc1cccc(-c2noc(-c3ccoc3C)n2)c1 | inconclusive [inhibitor, single point] |  |
| CC(=O)N(C)c1ccc(OCC(O)CN(Cc2ccco2)S(=O)(=O)c2ccc(C)cc2)cc1 (stereo not given) | inconclusive [inhibitor, single point] |  |
| O=C(NCCc1ccc(Cl)cc1)C(=O)c1c[nH]c2ccccc12 | inconclusive [inhibitor, single point] |  |
| COc1ccc(Cl)c(NCCC(=O)O)c1 |  | inactive: 0.919% |
| CC(C)Cc1ccc(S(=O)(=O)Nc2cccnc2)cc1 | inconclusive [inhibitor, single point] |  |
| O=[N+]([O-])c1cccnc1C1OCCO1 |  | inactive: 1.7% |
| COc1ccc(Cl)cc1NCC(=O)Nc1ccc(OC)c(S(=O)(=O)N2CCCCC2)c1 | inconclusive [inhibitor, single point] |  |
| CCCCCN1C(C(=O)c2ccccc2)=C(OC(=O)CC)c2ccccc2S1(=O)=O | active: 5.17 µM |  |
| CCc1ccc2c(c1)C(c1ccc(N3CCOCC3)cc1)=NNC(c1ccncc1)=N2 |  | inactive: -2.08% |
| Cc1ccc(NC(=O)CNC(c2ccccc2)c2ccccc2)c(F)c1 | inconclusive [inhibitor, single point] |  |
| COc1ccc2oc(/C=C/N(C)C)c(C(=O)c3ccc(Cl)cc3)c2c1 | inconclusive [inhibitor, single point] |  |

| Compound | Potency | activity change, negative = growth inhibition |
| --- | --- | --- |
| CCOC(=O)c1oc2ccccc2c1NC(=O)COC |  | inactive: -5.02% |
| COC(=O)c1ccccc1NC(=O)NCc1ccccn1 |  | inactive: -30% |
| CCOC(=O)Cn1c(CN2CCN(C(=O)c3ccco3)CC2)nc2c1c(=O)n(C)c(=O)n2C |  | inactive: 13.2% |
| CCc1nc2c(OCCOc3ccccc3)cccn2c1N(C)C(=O)C1CC1 | inconclusive [inhibitor, single point] |  |
| Cc1cc(OCC(=O)Nc2ccc(S(=O)(=O)NC3=NCCCCC3)cc2)c(C(C)C)cc1Cl | inconclusive [inhibitor, single point] |  |
| CC(=O)c1ccc(OCc2cc(C(=O)N3CCN(C4CCCC4)C(=O)C3)no2)cc1 | inconclusive [inhibitor, partial curve] |  |
| Cn1c(=O)[nH]c(=O)c2c1nc(NCc1ccco1)n2Cc1ccccc1Cl |  | inactive: 9.23% |
| O=C(NN=Cc1cccc(O)c1O)c1ccccc1 | active: 4.61 µM |  |
| O=C(c1cnccn1)N1CCC2(CC1)CCN(c1cccc(-c3ccccc3)c1)CC2 | inconclusive [inhibitor, single point] |  |
| O=C(NCc1cccs1)C1CCC(=O)N(Cc2cccc(C(F)(F)F)c2)C1 (stereo not given) |  | inconclusive: -31.3% [inhibitor] |
| Cn1c(O)c(N=Nc2nc(-c3ccccc3)cs2)c2ccccc21 | inconclusive [inhibitor, single point] |  |
| CCC(Sc1nc2n[nH]c(C)c2c(=N)n1-c1ccccc1Cl)C(=O)N(CC)CC (stereo not given) | active: 16.4 µM |  |
| CCN(CCCNC(=O)Cn1ncc2c([nH]c3ccc(C)cc32)c1=O)c1ccccc1 | inactive |  |
| CCCNC(=O)C1(C)CCN(C(=O)C2(c3ccc(Cl)cc3)CCCC2)C1 (stereo not given) | inconclusive [inhibitor, single point] |  |
| CC1CCCN(C(=O)C2CCN(S(=O)(=O)c3ccc4c(c3)CC(C)N4C(=O)C3CC3)CC2)C1 (stereo not given) | inconclusive [inhibitor, single point] |  |
| CCn1c(-c2ccccc2Cl)nn(CC(=O)Nc2ccc(OC)cc2)c1=S | inconclusive [inhibitor, partial curve, poor fit] |  |
| O=[N+]([O-])c1ccc(/C([O-])=C(/C(=S)Nc2ccccc2F)[n+]2ccccc2)cc1 | inconclusive [inhibitor, partial curve] |  |
| Cc1ccc(/C=N/NC(=O)c2ccncc2)s1 | active: 14.6 µM |  |
| Cc1cccc(NC(=O)c2cc3c(=O)n(Cc4cccnc4)ccc3nc2C)c1 | inconclusive [inhibitor, single point] |  |
| CC1=CSC2=NS(=O)(=O)CCN12 | inconclusive [inhibitor, single point] |  |
| Cn1c(=O)c(/C(N)=N/OC(=O)c2ccccc2)cn(-c2ccccc2)c1=O | inconclusive [inhibitor, partial curve, poor fit] |  |
| CCCNC(=O)C1(C)CCN(Cc2ccc(-c3ccccn3)cc2)C1 (stereo not given) | inconclusive [inhibitor, partial curve] |  |
